The whole screen tested about 310,000 compounds, of which about 14,000 (4.5%) showed an effect of 50% or more. The effect is printed as a negative number. This is one part of the list.
Target: human ether-à-go-go-related gene (hERG) potassium channel (human, UniProt Q12809)
Experiment: primary screen, population patch clamp on CHO cells stably expressing hERG
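Also: peak tail current of the secondary pulse compared with the same well before compound.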

Chain of human ether-à-go-go-related gene (hERG) potassium channel (Q12809 whole entry, looked up): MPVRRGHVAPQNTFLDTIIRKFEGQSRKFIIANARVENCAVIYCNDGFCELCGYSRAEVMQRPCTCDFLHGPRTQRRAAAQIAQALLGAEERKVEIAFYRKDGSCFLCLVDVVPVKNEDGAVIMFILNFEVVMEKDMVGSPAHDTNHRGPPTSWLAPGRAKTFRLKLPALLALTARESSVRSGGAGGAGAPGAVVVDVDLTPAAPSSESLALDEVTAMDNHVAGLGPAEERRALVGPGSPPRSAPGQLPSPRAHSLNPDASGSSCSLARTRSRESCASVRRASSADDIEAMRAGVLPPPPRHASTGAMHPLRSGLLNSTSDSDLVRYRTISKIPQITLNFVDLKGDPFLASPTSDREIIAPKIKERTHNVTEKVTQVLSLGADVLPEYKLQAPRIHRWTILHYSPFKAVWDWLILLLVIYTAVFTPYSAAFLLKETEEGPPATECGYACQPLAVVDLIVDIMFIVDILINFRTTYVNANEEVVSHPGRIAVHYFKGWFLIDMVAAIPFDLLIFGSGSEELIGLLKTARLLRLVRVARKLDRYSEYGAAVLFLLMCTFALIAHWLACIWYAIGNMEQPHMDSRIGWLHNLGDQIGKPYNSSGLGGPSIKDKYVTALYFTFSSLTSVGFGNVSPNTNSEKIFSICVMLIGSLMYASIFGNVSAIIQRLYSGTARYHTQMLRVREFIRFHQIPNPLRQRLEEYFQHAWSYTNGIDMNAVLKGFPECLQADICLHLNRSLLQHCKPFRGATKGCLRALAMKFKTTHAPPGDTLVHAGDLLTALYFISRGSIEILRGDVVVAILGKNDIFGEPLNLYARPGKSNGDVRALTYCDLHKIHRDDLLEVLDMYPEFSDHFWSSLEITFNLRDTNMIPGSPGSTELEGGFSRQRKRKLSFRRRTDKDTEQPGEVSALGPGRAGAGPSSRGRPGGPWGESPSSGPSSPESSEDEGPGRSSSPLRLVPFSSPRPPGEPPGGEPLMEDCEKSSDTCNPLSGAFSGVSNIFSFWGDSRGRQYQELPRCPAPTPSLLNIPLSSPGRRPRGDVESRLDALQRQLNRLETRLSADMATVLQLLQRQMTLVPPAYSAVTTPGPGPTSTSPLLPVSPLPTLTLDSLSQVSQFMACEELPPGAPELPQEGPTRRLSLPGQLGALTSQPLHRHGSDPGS

SMILES	hERG current change (%, negative = inhibition) at 10uM
COC(=O)C1=C(C(=O)OC)[C@@H]2N(Cc3ccccc3)c3ccccc3[C@@]23C[C@@H](C(=O)OC)N(C(C)=O)C3=N1	-0.809%
OC(C#CCN1CCCC1)(c1ccccc1)c1cccnc1 (stereo not drawn)	-19.3%
O=C(NCc1ccc(Cl)cc1)c1noc2c1CCCCC2	-9.88%
Cc1nnc(Nc2ccccn2)c2ccccc12	-33.2%
CC(C)CC(C)N1CCC(n2nccc2NC(=O)CCc2ccccc2)CC1 (stereo not drawn)	-6.38%
Cc1ccc(S(=O)(=O)N2CCOCC2)cc1C(=O)OCC(=O)c1ccc(Br)cc1	14.7%
COc1ccc(-c2nc3ccc(C)cn3c2NCc2ccccc2)cc1SC1CCCCC1.O=C(O)C(F)(F)F	0.0523%
Cc1ccc(NC(=O)COC(=O)c2cccnc2)c(C)c1	17.8%
O=C(NCCCN1CCOCC1)c1cc(S(=O)(=O)N2CCN(c3ccccc3)CC2)ccc1Cl	-76.6%
COc1ccc(OC(C)C(=O)Nc2cccc(F)c2)cc1 (stereo not drawn)	-0.525%
Cn1c(=O)oc2cc(NC(=O)CCl)ccc21	3.23%
CCOc1ccc2nc(N(CCN(C)C)C(=O)/C=C/c3cccs3)sc2c1.Cl	4.24%
COc1cc(NC(=O)c2ccc3c(c2)OCO3)ccc1NC(=O)C(C)C	11.3%
CCC1CN(C(=O)N2CCC(C(=O)NCc3ccco3)CC2)c2cc(C)ccc2O1 (stereo not drawn)	-10.7%
COC(=O)c1nc(-c2ccccc2)nc(-c2ccccc2)c1C(=O)OC	-7.46%
O=C(CCC(=O)c1ccc(-c2ccccc2)cc1)Nc1cccnc1	-11.5%
COC(=O)C(C(=O)Nc1ccccc1C)C1CCCC1 (stereo not drawn)	16.1%
CC(C)(C)c1cnnn1-c1ccc(NC(=O)c2ccc3c(c2)OCO3)cc1	-17.4%
CSc1cccc(N/C(=N/S(=O)(=O)c2ccccc2)NN)c1	-13.2%
CCn1c(C(=O)NC(C)c2ccc3c(c2)OCCO3)cc2sccc21 (stereo not drawn)	-10.8%
COc1ccc(Nc2ncc(C(=O)N3CCN(Cc4ccccc4)CC3)c3ccccc23)cc1	-10.2%
CCN1CCN(c2cc(=O)n(-c3cc(Cl)ccc3C)c(=O)[nH]2)CC1	-4.48%
COc1ccc(S(=O)(=O)Cc2ccc(C(=O)N3CCN(c4cccc(C)c4)C(C)C3)o2)cc1 (stereo not drawn)	-44.4%
Cc1ccc(C(=O)CSc2nnc(COc3ccc(C#N)cc3)n2-c2ccccc2)cc1	11%
CC(=O)C(N=Nc1ccccc1)(Sc1nnc(-c2ccccc2)n1-c1ccccc1)C(=O)Nc1ccccc1 (stereo not drawn)	3.81%
O=C(N/N=C/c1c(O)ccc2ccccc12)c1[nH]ncc1Br	11.1%
O=C(Cc1ccc(-c2ccccc2)cc1)NCc1ccccc1	18.7%

SMILES	hERG current change (%, negative = inhibition) at 10uM
Cc1nc2c3cnn(-c4ccccc4)c3ncn2n1	21.3%
O=C(NNC(=O)c1cc(O)c(O)c(O)c1)NC1CCCCC1	13.9%
O=S(=O)(c1ccccc1Cl)N1CCCC(c2nc(-c3cccnc3)no2)C1 (stereo not drawn)	-22.4%
CC(=O)N1CCN(c2ccc(S(C)(=O)=O)cc2[N+](=O)[O-])CC1	-12.7%
CN(C)c1ccc(C2Nc3cccc4cccc(c34)N2)cc1	16.3%
CSCCC(NC(=O)c1ccc(Cl)c([N+](=O)[O-])c1)C(=O)N1CCN(C/C=C/c2ccccc2)CC1 (stereo not drawn)	-25.8%
O=C(Nc1ccc2c(c1)OCO2)C1Cc2ccccc2CN1S(=O)(=O)c1cccs1 (stereo not drawn)	4.05%
Cc1ccc(-n2ncc3c(=O)[nH]c(SCC(=O)N4CCCc5ccccc54)nc32)cc1	1.9%
CCOc1ccc(C(=O)NC2CC3CCCC(C2)N3Cc2ccccc2)cc1 (stereo not drawn)	-57.5%
CC1O[C@@H](O[C@H](C)CC/C=C/C(=O)O)C(O)C[C@H]1O (stereo partly drawn)	4.94%
COc1ccc(-c2csc3ncnc(NCCO)c23)cc1	8.88%
Cc1cc(C)n(C(=O)CCC2COc3ccccc3O2)n1 (stereo not drawn)	-76.6%
Cc1ccc(NC(=O)NC2C(NC(=O)Nc3ccc(C)cc3)N(C)C(=O)N2C)cc1 (stereo not drawn)	5.92%
O=C(c1cccc(C(F)(F)F)c1)N1CCN(c2cc(=O)[nH]nc2-c2ccccc2)CC1	-44.3%
CCc1cc(C(=O)OC)c(NC(=O)C2CC(=O)NN2Cc2ccccc2)s1 (stereo not drawn)	-29.7%
COc1ccc(NC(=O)CCCN2C(=O)C(c3ccccc3)Oc3cccnc32)cc1OC (stereo not drawn)	1.23%
c1nc(N2CCCCCC2)c2[nH]cnc2n1	2.29%
CCCN(CCC)S(=O)(=O)c1ccc(C(=O)Nc2cc3oc4ccccc4c3cc2OC)cc1	3.38%
CC1(C)Cc2nc3nc(SCC(=O)NCCc4ccccc4)n(-c4ccccc4)c(=O)c3cc2CO1	-21.9%
CC(Nc1nc(N2CCN(CCO)CC2)nc2ccccc12)c1ccccc1 (stereo not drawn)	-60.9%
CCCC(=O)Nc1ccccc1NC(C)=O	5.07%
COc1ccc(C(=O)NC2CCCc3c2cnn3-c2cc(F)cc(F)c2)c(OC)n1 (stereo not drawn)	14.5%
COc1cc(C(=O)N2CCN(c3ccc([N+](=O)[O-])cc3)CC2)ccc1OCc1c(C)noc1C	-60.2%
COc1ccc(N2C(=O)CCC2(C#N)c2ccc(OC)cc2)cc1 (stereo not drawn)	3.67%
Cc1ccc(S(=O)(=O)Nc2ccccc2CNc2ccc(Br)cn2)cc1	13.4%
O=C(NCCc1ccccc1F)C1CC(=O)N(c2ccccc2)C1 (stereo not drawn)	1.17%
CNS(=O)(=O)c1cccc(C(=O)OCC(=O)c2cc(C)n(-c3ccc4c(c3)OCO4)c2C)c1	1.89%

Source: article PMC4336329 (PLoS ONE, 2015)
